Results as given in article PMC9911399, “Two distinct binding modes provide the RNA-binding protein RbFox with extraordinary sequence specificity”.
Positions count from the first letter of the chain named. Some of the results follow.

T1: RBFOX1 RRM (Homo sapiens, UniProt Q9NWB1 109-208)
T1 sequence: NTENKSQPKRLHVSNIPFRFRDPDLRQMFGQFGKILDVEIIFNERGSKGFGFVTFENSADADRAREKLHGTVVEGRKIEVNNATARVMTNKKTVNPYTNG

B1: AUGUAAC (DNA:RNA)
RNA: GGGAGACCGGAAUUCAGAUUGUCCAUGUAACUUAAAUCCCGUCGUAGCCACCA
DNA 1: CAATCTGAATTCCGGTCTCCC
DNA 2: TGGTGGCTACGACGGGATT
B2: GUGUUUA (DNA:RNA)
RNA: B1 RNA with A25G, A29U, A30U, C31A
DNA 1: CAATCTGAATTCCGGTCTCCC
DNA 2: TGGTGGCTACGACGGGATT
B3: UAUUUGA (DNA:RNA)
RNA: B1 RNA with A25U, U26A, G27U, A29U, A30G, C31A
DNA 1: CAATCTGAATTCCGGTCTCCC
DNA 2: TGGTGGCTACGACGGGATT
B4: UAGCGUC (DNA:RNA)
RNA: B1 RNA with A25U, U26A, U28C, A29G, A30U
DNA 1: CAATCTGAATTCCGGTCTCCC
DNA 2: TGGTGGCTACGACGGGATT
B5: GGCCAGC (DNA:RNA)
RNA: B1 RNA with A25G, U26G, G27C, U28C, A30G
DNA 1: CAATCTGAATTCCGGTCTCCC
DNA 2: TGGTGGCTACGACGGGATT
B6: GCCAUCC (DNA:RNA)
RNA: B1 RNA with A25G, U26C, G27C, U28A, A29U, A30C
DNA 1: CAATCTGAATTCCGGTCTCCC
DNA 2: TGGTGGCTACGACGGGATT
B7: CUGAGCG (DNA:RNA)
RNA: B1 RNA with A25C, U28A, A29G, A30C, C31G
DNA 1: CAATCTGAATTCCGGTCTCCC
DNA 2: TGGTGGCTACGACGGGATT
B8: CGCGCCC (DNA:RNA)
RNA: B1 RNA with A25C, U26G, G27C, U28G, A29C, A30C
DNA 1: CAATCTGAATTCCGGTCTCCC
DNA 2: TGGTGGCTACGACGGGATT
B9: CGCCAAG (DNA:RNA)
RNA: B1 RNA with A25C, U26G, G27C, U28C, C31G
DNA 1: CAATCTGAATTCCGGTCTCCC
DNA 2: TGGTGGCTACGACGGGATT
B10: GUAUGAC (DNA:RNA)
RNA: B1 RNA with A25G, G27A, A29G
DNA 1: CAATCTGAATTCCGGTCTCCC
DNA 2: TGGTGGCTACGACGGGATT
B11: GCUGAGU (DNA:RNA)
RNA: B1 RNA with A25G, U26C, G27U, U28G, A30G, C31U
DNA 1: CAATCTGAATTCCGGTCTCCC
DNA 2: TGGTGGCTACGACGGGATT
B12: AGAAGGA (DNA:RNA)
RNA: B1 RNA with U26G, G27A, U28A, A29G, A30G, C31A
DNA 1: CAATCTGAATTCCGGTCTCCC
DNA 2: TGGTGGCTACGACGGGATT
B13: ACAUACC (DNA:RNA)
RNA: B1 RNA with U26C, G27A, A30C
DNA 1: CAATCTGAATTCCGGTCTCCC
DNA 2: TGGTGGCTACGACGGGATT
B14: AUAGCAG (DNA:RNA)
RNA: B1 RNA with G27A, U28G, A29C, C31G
DNA 1: CAATCTGAATTCCGGTCTCCC
DNA 2: TGGTGGCTACGACGGGATT
B15: GCAUUUU (DNA:RNA)
RNA: B1 RNA with A25G, U26C, G27A, A29U, A30U, C31U
DNA 1: CAATCTGAATTCCGGTCTCCC
DNA 2: TGGTGGCTACGACGGGATT
B16: AGGGCAU (DNA:RNA)
RNA: B1 RNA with U26G, U28G, A29C, C31U
DNA 1: CAATCTGAATTCCGGTCTCCC
DNA 2: TGGTGGCTACGACGGGATT
B17: GACAUGA (DNA:RNA)
RNA: GGGAGACCGGAAUUCAGAUUGUCCGACAUGAUUAAAUCCCGUCGUAGCCACCA
DNA 1: CAATCTGAATTCCGGTCTCCC
DNA 2: TGGTGGCTACGACGGGATT
B18: CCUAAGU (DNA:RNA)
RNA: B17 RNA with G25C, A26C, C27U, U29A, A31U
DNA 1: CAATCTGAATTCCGGTCTCCC
DNA 2: TGGTGGCTACGACGGGATT
B19: AUCUCGC (DNA:RNA)
RNA: B1 RNA with G27C, A29C, A30G
DNA 1: CAATCTGAATTCCGGTCTCCC
DNA 2: TGGTGGCTACGACGGGATT
B20: CUCUCCA (DNA:RNA)
RNA: B1 RNA with A25C, G27C, A29C, A30C, C31A
DNA 1: CAATCTGAATTCCGGTCTCCC
DNA 2: TGGTGGCTACGACGGGATT
B21: UUCUUCU (DNA:RNA)
RNA: B1 RNA with A25U, G27C, A29U, A30C, C31U
DNA 1: CAATCTGAATTCCGGTCTCCC
DNA 2: TGGTGGCTACGACGGGATT
B22: GGCAGUC (DNA:RNA)
RNA: B17 RNA with A26G, U29G, G30U, A31C
DNA 1: CAATCTGAATTCCGGTCTCCC
DNA 2: TGGTGGCTACGACGGGATT
B23: CACAAGU (DNA:RNA)
RNA: B17 RNA with G25C, U29A, A31U
DNA 1: CAATCTGAATTCCGGTCTCCC
DNA 2: TGGTGGCTACGACGGGATT
B24: AGCUCCG (DNA:RNA)
RNA: B1 RNA with U26G, G27C, A29C, A30C, C31G
DNA 1: CAATCTGAATTCCGGTCTCCC
DNA 2: TGGTGGCTACGACGGGATT
B25: CUGCUCA (DNA:RNA)
RNA: B1 RNA with A25C, U28C, A29U, A30C, C31A
DNA 1: CAATCTGAATTCCGGTCTCCC
DNA 2: TGGTGGCTACGACGGGATT
B26: CUCGGUA (DNA:RNA)
RNA: B17 RNA with G25C, A26U, A28G, U29G, G30U
DNA 1: CAATCTGAATTCCGGTCTCCC
DNA 2: TGGTGGCTACGACGGGATT
B27: UCGAGGA (DNA:RNA)
RNA: B17 RNA with G25U, A26C, C27G, U29G
DNA 1: CAATCTGAATTCCGGTCTCCC
DNA 2: TGGTGGCTACGACGGGATT
B28: UUUGACC (DNA:RNA)
RNA: B1 RNA with A25U, G27U, U28G, A30C
DNA 1: CAATCTGAATTCCGGTCTCCC
DNA 2: TGGTGGCTACGACGGGATT
B29: CAACCCA (DNA:RNA)
RNA: B17 RNA with G25C, C27A, A28C, U29C, G30C
DNA 1: CAATCTGAATTCCGGTCTCCC
DNA 2: TGGTGGCTACGACGGGATT
B30: GGUGCGU (DNA:RNA)
RNA: B17 RNA with A26G, C27U, A28G, U29C, A31U
DNA 1: CAATCTGAATTCCGGTCTCCC
DNA 2: TGGTGGCTACGACGGGATT
B31: UUGCGAU (DNA:RNA)
RNA: B1 RNA with A25U, U28C, A29G, C31U
DNA 1: CAATCTGAATTCCGGTCTCCC
DNA 2: TGGTGGCTACGACGGGATT

target: T1, RBFOX1 RRM; assay: EMSA; HiTS-Eq, 1 nM pool, 10 min; buffer printed only for the single-RNA assays: 10 mM Tris pH 7.5, 150 mM NaCl, 3.4 mM EDTA, 0.001% NP-40, 30 C; conditions: tags: His6 N-terminal (pET28a); label: 5' 32P
How it was run: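 Purified wild-type or mutant RbFox RRM at increasing concentrations was equilibrated with 1 nM of 5′-radiolabelled RNA carrying 7 randomized nucleotides for 10 min in 50 µL. Unbound RNA was separated by 8% native PAGE and sequenced. Relative association constants came from read-count changes of each RNA species compared with the control reaction, normalised to the cognate motif.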

| Binder | binding signal |
| --- | --- |
| B1 | 0.0041 KA relative to UGCAUGU |
| B2 | 0.00869 KA relative to UGCAUGU |
| B3 | 0.0208 KA relative to UGCAUGU |
| B4 | 0.0144 KA relative to UGCAUGU |
| B5 | 0.00861 KA relative to UGCAUGU |
| B6 | 0.00701 KA relative to UGCAUGU |
| B7 | 0.0193 KA relative to UGCAUGU |
| B8 | 0.00766 KA relative to UGCAUGU |
| B9 | 0.00625 KA relative to UGCAUGU |
| B10 | 0.0127 KA relative to UGCAUGU |
| B11 | 0.0202 KA relative to UGCAUGU |
| B12 | 0.00514 KA relative to UGCAUGU |
| B13 | 0.000302 KA relative to UGCAUGU |
| B14 | 0.00562 KA relative to UGCAUGU |
| B15 | 0.0088 KA relative to UGCAUGU |
| B16 | 0.0225 KA relative to UGCAUGU |

| Binder | binding signal |
| --- | --- |
| B17 | 0.0171 KA relative to UGCAUGU |
| B18 | 0.00428 KA relative to UGCAUGU |
| B19 | 0.0118 KA relative to UGCAUGU |
| B20 | 0.000929 KA relative to UGCAUGU |
| B21 | 0.0107 KA relative to UGCAUGU |
| B22 | 0.0117 KA relative to UGCAUGU |
| B23 | 0.00182 KA relative to UGCAUGU |
| B24 | 0.00867 KA relative to UGCAUGU |
| B25 | 0.0126 KA relative to UGCAUGU |
| B26 | 0.0114 KA relative to UGCAUGU |
| B27 | 0.00503 KA relative to UGCAUGU |
| B28 | 0.0109 KA relative to UGCAUGU |
| B29 | 0.00256 KA relative to UGCAUGU |
| B30 | 0.0222 KA relative to UGCAUGU |
| B31 | 0.0151 KA relative to UGCAUGU |
